# Data as given in a collection of fitness landscapes (doi:10.1126/science.1257360).
# Some of the results follow.
# B1: PhoQ; a variant is named by its letters at X, in order, P23837 (parent)
# chain: MKKLLRLFFPLSLRVRFLLATAAVVLVLSLAYGMVALIGYSVSFDKTTFRLLRGESNLFYTLAKWENNKLHVELPENIDKQSPTMTLIYDENGQLLWAQRDVPWLMKMIQPDWLKSNGFHEIEADVNDTSLLLSGDHSIQQQLQEVREDDDDAEMTHSVAVNVYPATSRMPKLTIVVVDTIPVELKSSYMVWSWFIYVLSANLLLVIPLLWVAAWWSLRPIEALAKEVRELEEHNRELLNPATTRELTSLVRNLNRLLKSERERYDKYRTTLTDLTHSLKTPLXXLQXXLRSLRSEKMSVSDAEPVMLEQISRISQQIGYYLHRASMRGGTLLSRELHPVAPLLDNLTSALNKVYQRKGVNISLDISPEISFVGEQNDFVEVMGNVLDNACKYCLEFVEISARQTDEHLYIVVEDDGPGIPLSKREVIFDRGQRVDTLRPGQGVGLAVAREITEQYEGKIVAGESMLGGARMEVIFGRQHSAPKDE
# Variants of: B1
# Assay: enrichment ratio after two sorts for PhoP signalling (ratio (wild type AVST 3.29)); higher = more functional
# Conditions: with PhoP (E. coli)
row,Variant,enrichment ratio
1,RCMS,≤ 0.25
2,MSFE,9.01
3,SWPW,≤ 0.25
4,YCCT,≤ 0.25
5,SHHS,≤ 0.25
6,PYRQ,≤ 0.25
7,TVDI,≤ 0.25
8,IMQD,≤ 0.25
9,AIAN,8.45
10,MVWS,≤ 0.25
11,MVIN,≤ 0.25
12,HKSK,≤ 0.25
13,LVMF,≤ 0.25
14,PQTM,≤ 0.25
15,NQYI,≤ 0.25
16,PIDI,≤ 0.25
17,FHVM,≤ 0.25
18,PMAA,≤ 0.25
19,KYYR,≤ 0.25
20,PHEV,≤ 0.25
21,YSSV,0.289
22,GRVW,≤ 0.25
23,SSCH,10.9
24,MRIK,≤ 0.25

row,Variant,enrichment ratio
1,ECSR,≤ 0.25
2,QQRC,≤ 0.25
3,FQAQ,≤ 0.25
4,YFQE,≤ 0.25
5,KYIA,≤ 0.25
6,NMRV,≤ 0.25
7,TSDP,≤ 0.25
8,ILWK,≤ 0.25
9,TATK,≤ 0.25
10,LYSP,≤ 0.25
11,SNVI,8.08
12,YGQN,≤ 0.25
13,WDLV,≤ 0.25
14,ETKG,≤ 0.25
15,ENIY,≤ 0.25
16,VCCD,≤ 0.25
17,NLSL,≤ 0.25
18,PPDM,≤ 0.25
19,SFHN,≤ 0.25
20,ARDI,≤ 0.25
21,KAYD,≤ 0.25
22,MLIP,≤ 0.25
23,AAMF,7.63
24,TFRC,≤ 0.25

row,Variant,enrichment ratio
1,FDIN,≤ 0.25
2,EMGE,≤ 0.25
3,RGIW,≤ 0.25
4,LHME,≤ 0.25
5,RNWA,≤ 0.25
6,RKCF,≤ 0.25
7,RVSA,≤ 0.25
8,RPDH,≤ 0.25
9,SSWT,≤ 0.25
10,NYWL,≤ 0.25
11,AGMI,16.4
12,AEQG,≤ 0.25
13,FPRA,≤ 0.25
14,QIYL,6.46
15,VFHY,≤ 0.25
16,HMAW,≤ 0.25
17,VCKY,≤ 0.25
18,EIHG,≤ 0.25
19,VTSQ,≤ 0.25
20,TSSP,≤ 0.25
21,ACNV,≤ 0.25
22,VHWM,≤ 0.25
23,DNHQ,≤ 0.25
24,AQYW,≤ 0.25

row,Variant,enrichment ratio
1,NLLT,≤ 0.25
2,TGSY,15.9
3,GQTD,≤ 0.25
4,SAME,0.508
5,DRQV,1.36
6,MDER,≤ 0.25
7,WNCI,≤ 0.25
8,WAGF,≤ 0.25
9,QCAA,≤ 0.25
10,AYFI,≤ 0.25
11,YHWW,≤ 0.25
12,FYWM,≤ 0.25
13,PEKV,≤ 0.25
14,DLDT,≤ 0.25
15,DGIC,≤ 0.25
16,ELKP,≤ 0.25
17,NSNK,≤ 0.25
18,QTQR,≤ 0.25
19,RSPH,≤ 0.25
20,LMKR,≤ 0.25
21,NKIV,≤ 0.25
22,WSYW,≤ 0.25
23,NPKA,≤ 0.25
24,IKSY,≤ 0.25

row,Variant,enrichment ratio
1,WHYS,≤ 0.25
2,PCNW,≤ 0.25
3,YPCF,≤ 0.25
4,SLQE,≤ 0.25
5,YWAE,≤ 0.25
6,QKHG,≤ 0.25
7,QADP,≤ 0.25
8,AMNW,≤ 0.25
9,LWKR,≤ 0.25
10,NHDQ,≤ 0.25
11,NLHI,≤ 0.25
12,EMNA,≤ 0.25
13,KAFV,≤ 0.25
14,KYIC,≤ 0.25
15,GMVQ,≤ 0.25
16,HARR,≤ 0.25
17,RFAR,≤ 0.25
18,GDQP,≤ 0.25
19,IKVH,≤ 0.25
20,KYSD,≤ 0.25
21,PVVL,≤ 0.25
22,SRNN,≤ 0.25
23,NKQP,≤ 0.25
24,IQAS,≤ 0.25

row,Variant,enrichment ratio
1,NKCK,≤ 0.25
2,NNPV,≤ 0.25
3,NEGH,≤ 0.25
4,YVFH,≤ 0.25
5,QLIC,≤ 0.25
6,SMFN,≤ 0.25
7,DTAT,≤ 0.25
8,NGYG,≤ 0.25
9,KVFT,≤ 0.25
10,GQPT,≤ 0.25
11,KNII,≤ 0.25
12,VGYL,≤ 0.25
13,HGHP,≤ 0.25
14,TVRM,1.11
15,DYII,≤ 0.25
16,AHRM,≤ 0.25
17,YTHH,≤ 0.25
18,TPCH,≤ 0.25
19,RGYC,≤ 0.25
20,TSCE,8.23
21,YDEI,≤ 0.25
22,TWLT,≤ 0.25
23,RGQM,≤ 0.25
24,FVGW,≤ 0.25

row,Variant,enrichment ratio
1,LHKK,≤ 0.25
2,PVVY,≤ 0.25
3,PPNH,≤ 0.25
4,LYCL,≤ 0.25
5,TNEE,≤ 0.25
6,LLWA,≤ 0.25
7,ALWW,≤ 0.25
8,SPEF,≤ 0.25
9,PRPM,≤ 0.25
10,FPQI,≤ 0.25
11,LMGP,≤ 0.25
12,FRLA,≤ 0.25
13,GMPP,≤ 0.25
14,YENQ,≤ 0.25
15,GQQE,≤ 0.25
16,QFDC,≤ 0.25
17,HIFW,≤ 0.25
18,EHSE,≤ 0.25
19,YMWH,≤ 0.25
20,TSKL,≤ 0.25
21,WLSS,≤ 0.25
22,RFPS,≤ 0.25
23,KTCC,≤ 0.25
24,YNFI,≤ 0.25

row,Variant,enrichment ratio
1,FIIQ,≤ 0.25
2,YVRW,≤ 0.25
3,WGCL,≤ 0.25
4,WDHF,≤ 0.25
5,PPWK,≤ 0.25
6,QRVW,≤ 0.25
7,AGCW,≤ 0.25
8,MIVV,1.15
9,LDGL,≤ 0.25
10,IQST,≤ 0.25
11,SYCV,≤ 0.25
12,GVVL,1.14
13,FMNV,≤ 0.25
14,LPRM,≤ 0.25
15,WYNY,≤ 0.25
16,MDRT,≤ 0.25
17,QMGM,≤ 0.25
18,VHCL,≤ 0.25
19,HAWS,≤ 0.25
20,HAQL,≤ 0.25
21,MYIT,≤ 0.25
22,ACFV,≤ 0.25
23,PERT,≤ 0.25
24,YDQE,≤ 0.25

row,Variant,enrichment ratio
1,GLRI,≤ 0.25
2,FACG,≤ 0.25
3,ATLY,11.1
4,PPLC,≤ 0.25
5,WQGR,≤ 0.25
6,MQKW,≤ 0.25
7,ENLH,≤ 0.25
8,YDID,≤ 0.25
9,RDTI,≤ 0.25
10,IMHM,≤ 0.25
11,FTLV,10.2
12,GCTA,≤ 0.25
13,VRFG,≤ 0.25
14,RISS,≤ 0.25
15,TFME,≤ 0.25
16,MHLY,≤ 0.25
17,HRTE,≤ 0.25
18,EQWC,≤ 0.25
19,THYV,≤ 0.25
20,FPPH,≤ 0.25
21,VMML,≤ 0.25
22,WDDD,≤ 0.25
23,ARVT,≤ 0.25
24,YVIY,≤ 0.25

row,Variant,enrichment ratio
1,NRCW,≤ 0.25
2,TEIQ,8.31
3,VWPE,≤ 0.25
4,RNKF,≤ 0.25
5,DPKG,≤ 0.25
6,YATI,≤ 0.25
7,RHFK,≤ 0.25
8,VFIT,≤ 0.25
9,WFSI,≤ 0.25
10,TAFY,2.48
11,YQWP,≤ 0.25
12,IWCL,≤ 0.25
13,RYPE,≤ 0.25
14,KIKQ,≤ 0.25
15,LTQM,≤ 0.25
16,FVKR,≤ 0.25
17,PNKF,≤ 0.25
18,RPIG,≤ 0.25
19,FSYG,≤ 0.25
20,YKPK,≤ 0.25
21,DPRG,≤ 0.25
22,YTPK,≤ 0.25
23,TPHM,≤ 0.25
24,KIPT,≤ 0.25

row,Variant,enrichment ratio
1,KLPQ,≤ 0.25
2,PGSE,≤ 0.25
3,SCMM,14.4
4,FPWA,≤ 0.25
5,MITW,≤ 0.25
6,TLYM,1.09
7,SEYL,2.14
8,FESH,≤ 0.25
9,VSIG,≤ 0.25
10,HVRY,≤ 0.25
11,TKLR,≤ 0.25
12,LTPI,≤ 0.25
13,MCYW,≤ 0.25
14,LYTL,0.309
15,VRWD,≤ 0.25
16,EQNF,≤ 0.25
17,EYLQ,≤ 0.25
18,WVRC,≤ 0.25
19,GYKF,≤ 0.25
20,VVPA,≤ 0.25
21,FRPV,≤ 0.25
22,TKLC,19.8
23,VPGR,≤ 0.25
24,MFLM,≤ 0.25

row,Variant,enrichment ratio
1,VMDD,≤ 0.25
2,YNFS,≤ 0.25
3,TFEQ,≤ 0.25
4,ARLH,2.5
5,GMRF,0.977
6,LGPT,0.425
7,MSKM,≤ 0.25
8,KLRR,≤ 0.25
9,HAPE,≤ 0.25
10,STNH,8.09
11,GYEH,≤ 0.25
12,MKCC,≤ 0.25
13,LRHC,≤ 0.25
14,PWWN,≤ 0.25
15,TPLK,≤ 0.25
16,SIQN,6.8
17,WIVL,≤ 0.25
18,AAPG,≤ 0.25
19,RVGI,≤ 0.25
20,ALYY,≤ 0.25
21,QGNT,≤ 0.25
22,NQPT,≤ 0.25
23,DEAV,≤ 0.25
24,HDGT,≤ 0.25

row,Variant,enrichment ratio
1,RNQT,≤ 0.25
2,YNHQ,≤ 0.25
3,TSLS,15.9
4,MCYV,2.99
5,GTIQ,5.98
6,LLPD,≤ 0.25
7,MTIW,≤ 0.25
8,WLWN,≤ 0.25
9,RCHY,≤ 0.25
10,WTFD,≤ 0.25
11,HTLK,≤ 0.25
12,TYHL,7.82
13,QLNK,≤ 0.25
14,PWTI,≤ 0.25
15,FYLS,≤ 0.25
16,PQFG,≤ 0.25
17,VAVR,≤ 0.25
18,HGIP,≤ 0.25
